Assay results: the supplement of paper PMC10126150
Sequences with one replicate were seen in a single cluster, so their values are uncertain.

Tested on: ATP
Experiment: switch fluorescence ratio, 500 uM ATP over buffer (Cy3 cluster intensity, sum of 5 cycles each) (fold (ratio)); higher = stronger signal-on switching upon ATP binding; sequences stand for … in TCGTCGGCAGCGTCAGATGTGTATAAGAGACAGTTTTTTTTTTTTTTTTTTTTTTTTT…TC
Settings: aptamer strand: ATP DNA aptamer (quencher-CACCTGGGGGAGTATTGCGGAGGAAGG + anchor), 100 nM annealed; ATP concentration: 500 uM; one replicate
In short: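 Five buffer/ATP imaging cycles were run on Cy3-labelled switching-strand clusters on a modified Illumina MiSeq flow-cell, with NaOH stripping and re-annealing between cycles. In each cycle, clusters annealed to 100 nM quencher-labelled ATP aptamer were imaged in selection buffer, then after 15 min with 500 uM ATP at 22 °C. Per cluster, the fluorescence ratio is summed target-cycle over summed buffer-cycle Cy3 intensity, averaged per switch-domain sequence. Only clusters within 100-1000 RFU were kept.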
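Also: ATP exposure 15 min at 22 °C before imaging.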

Sequence | switch fluorescence ratio
GAATAGCTGA | 1.02
ATAATCGGGG | 0.981
AACAGTAAAT | 1.02
ATTACCTGAA | 1.03
GGTTTAGAAC | 0.985
TGCGATTTCG | 0.984
GAGATCGCTC | 1.01
CCACGTGAAC | 1.51
AGGTAAGAAA | 1.01
TTGTATATCT | 1.05
GAGTTATAAA | 0.994
AGGCAAACGT | 1.06
CGTGACGGTC | 1
TTTGATGCGC | 0.968
TCAGACTTTA | 1.03
ACCGGGAGGG | 1.05
GGCGCGCAAG | 1.13
CCCTACAGGA | 1.07
AATAAATTAT | 1
TGACATCAGG | 0.992
CTCGCACTA | 2.69
CGCGGGTGGA | 1.12
GAAAGGATAC | 1.05
GGTCCCGCA | 0.995
TGGAAACATG | 1.01
TTTTGATGTG | 0.997

Sequence | switch fluorescence ratio
ATGGGCCAAC | 1.02
ACGATAATAG | 1.24
CGCTTATGAC | 2.2
GTTTGACCAT | 0.989
ATGGTGTGAT | 0.994
CCACTGATGT | 1.08
AGTTAGGTGC | 1.19
TTGGAGACT | 0.99
ACGTTTCCCT | 1.03
GCTAATGTAT | 1.01
ATAACGATGT | 0.992
TTAAGATGG | 1.02
CTAGTAGGCG | 0.964
ATGAAGTCCG | 1.02
TCAATAGCCA | 0.997
AAGGCCGGGA | 0.987
AATATGTCT | 1
AATAGTTTGT | 0.976
TAGTAGGCAG | 1.04
TCGGAACGTG | 0.988
GCTGGGTACG | 1.01
GCAGTCCGCA | 2.45
TCGGAGGATG | 0.986
GTTGAGCCTC | 0.973
CTGCGAGAAC | 1.19
GTAGGGGAGG | 0.987

Sequence | switch fluorescence ratio
CAGAAGACGT | 1.05
TTTACAAAGC | 1.16
GCCACCTAGG | 1.05
CAAGTCGTCT | 1.06
ACTAGGTTCC | 1.16
TGCCTGTTAG | 0.99
TCGTGATGAC | 1.23
CCGGACGTAC | 3.05
TCAAGGCAT | 1
GTCGTCGCTC | 1.01
CCCCATTTGG | 1.09
CCCAGTAGC | 1.14
GGCAGGGATA | 1
TCACGGGGAG | 1
ACGAGAGGTT | 1.03
CTCCCCACTA | 1.03
CCTCTGCCTT | 3.34
CATGGAAAG | 1.04
GGATAACAAT | 0.981
TTAGGCTCAG | 0.982
TACTGGTAAT | 0.964
GATTCAGCAG | 1.02
ACCCGGGTAA | 1.68
TCGTAGCTCG | 0.956
ATTTGATGTC | 1.04
TCCACTAGGG | 1.15

Sequence | switch fluorescence ratio
ACCCGATAAA | 1.03
ATAACACTGG | 1.07
TATAGTACAG | 1.02
TCTTGACGAT | 0.958
CACTCCTCCC | 1.83
GATCTCATC | 0.992
TACACATCGA | 1.06
GTTGTCTAT | 1.01
AGGGTTACAA | 1.02
AGATATAGTA | 1.02
TAGCACCCTC | 0.992
AGACACTTTC | 1.03
ATAGTAGGAA | 0.981
ACCTATTAAA | 0.965
ACTACGAGTC | 1.05
GGTTAATGGT | 0.997
GCTGCCTGAG | 1.02
GTGGCTATAA | 1.01
TAAATTAGGC | 0.992
GCCTACCTCT | 1.1
AAATATTGT | 0.978
CTGAAGTAGG | 1.09
ATGGAAGGTG | 1.52
CGGTACACAG | 0.991
TGTAAGGTCA | 0.973
CCAACCGGCT | 1.02

Sequence | switch fluorescence ratio
TGGGGCCATC | 0.985
GTTCAATGCG | 0.952
TTCACAGAAC | 1.08
TCGAGTGTTA | 0.946
TATTGAGTT | 1.01
ACTGAAGGGA | 1.05
CCGTGCTTTC | 1.9
CGGAATCCAA | 0.997
CTGGTGCCGT | 1.13
TCGTTTAGT | 0.967
TACTTGGGTG | 1.03
GTTCCAGGGA | 1.07
GTAAAAGCGA | 1.02
AGTTACTTTT | 1.04
TTAGGCTGAC | 1.06
GTGTCTAATT | 1.01
TATTCGATAT | 1.07
GTTAGGCTGT | 1.03
GCCACGGGCC | 0.996
GGCGGTTACG | 0.997
GTAGGAGG | 0.952
ATCAAGTGTT | 0.961
AGCTATTCTG | 0.99
TGATATCCCC | 1.08
ACGGGAGTA | 1.04
GGAATGAGGC | 1.02

Sequence | switch fluorescence ratio
TTCATGAGGC | 1.05
TCCACGGT | 1.07
CGGGAGGAAG | 0.981
CTGAGGCGCG | 0.979
GACTGTCGAA | 1.01
GAAACCAGCG | 1.16
TTTGACGACC | 1.15
GGACGCTGGT | 1.09
AGTCCCGTTG | 1.04
GGAGGTTTCA | 0.978
TCACCTTAGT | 1
CTTCTAAACC | 1.06
GCATGGTCAC | 1.01
TGTAAATATA | 0.983
TGGACCTAGG | 1.07
TCAGACCAG | 0.975
GGTAGTAACG | 1.02
CTATATAGAC | 1
GCGGTCAGTC | 0.988
AACCCCTGGG | 1.04
TTTAGGATAG | 0.989
GCGACTAGGA | 1.02
AAAGAAATAG | 0.993
GGTCCGGTTT | 1.02
CAACAGGGAG | 1.06
AGGCTGTGTG | 0.993

Sequence | switch fluorescence ratio
GGGCGAGACA | 1.04
AATTTCTTGG | 0.97
TCTCGATTCT | 0.976
CGTATAATAC | 2.39
TGTAACTAGT | 1.03
TAAAGTCGTT | 1.01
ACGCCTGGCG | 0.989
GTTACACTTT | 1.02
GTAGCTGCCA | 1.02
TGGCGAGCCG | 1.03
TAGCTGATTA | 0.984
CGCGTTTACT | 1.46
TTAGAGAACA | 0.999
CACATCATAA | 1.02
CCTACGGGAC | 6.2
GTGTATATTA | 0.993
CGAGTGACTT | 0.997
GTGTCAATGC | 1.9
GTACGGGACC | 1.27
TTATGGCTGT | 0.977
GTGTGAATAG | 1.05
AGGTCCCTAG | 0.994
GCTCTTCATG | 1.01
AATTATTATA | 1.07
TGTATCTTTA | 0.979
CTATTCCCA | 1.02

Sequence | switch fluorescence ratio
TGAGGGGGA | 0.994
GCACAAATCT | 1.03
GGGGAAAGTG | 1.04
ATTACACATA | 1.32
TAAAGAACGA | 1
AGATCCTGGG | 0.978
ACCCATGCAG | 1.02
AGTGCTTAAT | 0.991
GGTGACGTCG | 1.06
CCGTTGAG | 1.06
AATATATGAT | 0.949
AGCCACGCTA | 1.03
AACTTATATA | 0.988
GAGCCACTTC | 1.05
GGACGATCAC | 1.64
GAACAGAGTT | 0.977
TGACCGGGGA | 1.04
GAGGTAAACT | 0.978
CAATAATTAC | 1.06
